This is one part of the list.

In the assay the target is T1, OsWOX13 (Oryza sativa, UniProt Q5QMM3 1-267).
T1 sequence: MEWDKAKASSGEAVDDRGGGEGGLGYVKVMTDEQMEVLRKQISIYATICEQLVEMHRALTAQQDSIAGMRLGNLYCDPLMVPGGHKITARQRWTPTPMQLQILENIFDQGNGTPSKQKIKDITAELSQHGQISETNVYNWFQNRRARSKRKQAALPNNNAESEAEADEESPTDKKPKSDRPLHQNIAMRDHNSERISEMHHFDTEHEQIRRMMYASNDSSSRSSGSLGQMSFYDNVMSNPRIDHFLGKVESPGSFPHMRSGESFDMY
In words: protein-binding microarray (RPBM); PBS, 2% BSA, 51.3 ng/ul salmon testes DNA, 50 uM zinc acetate, 200 nM TF, 25 C, 1 h; high values mean tight binding. As to conditions: protein: recombinant; tags: N-terminal polyhistidine and DsRed monomer fusion (pET32a); label: CyDye5-dUTP incorporated in the synthesized complementary strand; 3' TTTTT single-stranded linker to array surface; dsDNA, one strand shown. In outline: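 An Axon 4000B scanner gave the binding signal as per-feature fluorescence intensity in arbitrary units. This followed washing of a custom Agilent array that had been incubated for 1 h at 25 °C with 200 nM protein in PBS, 2% BSA, salmon testes DNA and 50 µM zinc acetate. The proteins were transcription factors fused at the N-terminus to polyhistidine and DsRed, expressed in E. coli BL21-CodonPlus and purified on Ni–NTA.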
As to “CAAGATTGTAGTTAATAAATTTAGACGCTAACGATTATTACGGAGTCACCTAGTGCAG”, the binding signal is 4730 fluorescence intensity (a.u.).

With “AGTAAACTGAATAGTATTCAGCCGAATAAATATTGTACATCGGAGTCACCTAGTGCAG”, the binding signal is 3640 fluorescence intensity (a.u.).

“CATAATTAATCTTCTCTTTGAAGAAGTGTAGCTGTGAATTCGGAGTCACCTAGTGCAG”: the binding signal is 24200 fluorescence intensity (a.u.).

Consider “TCCCTGTCATTCCATCGTTTGTTCCATCCCATGGACCGGCCGGAGTCACCTAGTGCAG”, for which the binding signal is 3950 fluorescence intensity (a.u.).

Turning to “GAAACTAATCACCTATACTATCGGAGAACCTAATTTAACCCGGAGTCACCTAGTGCAG”, the binding signal is 3660 fluorescence intensity (a.u.).

In the case of “TTAATACAAATTTATTTCCCATAATCAAGGAGGCGATATCCGGAGTCACCTAGTGCAG”, the binding signal is 8060 fluorescence intensity (a.u.).

Consider “TTCAACTCGAGATTGAAAACTTTCAAATCTAGATTTGAAACGGAGTCACCTAGTGCAG”, for which the binding signal is 3250 fluorescence intensity (a.u.).

Turning to “CAGGAATTGAAATGTAAAACAGAGGATTGCAAAACACAGGCGGAGTCACCTAGTGCAG”, the binding signal was 3630 fluorescence intensity (a.u.).

In the case of “AACTGATAGATGCTCAAGAAGTTAACTTTAAAGGTTCAAGCGGAGTCACCTAGTGCAG”, the binding signal was 17900 fluorescence intensity (a.u.).

With “CCTCCCACCAACTGAGCTTGATTGAAGGCGGTTCATAAACCGGAGTCACCTAGTGCAG”, the binding signal is 12600 fluorescence intensity (a.u.).

With “TGCATCTTTCTGTTTAAATCATGTTATCATCGATGCAGTTCGGAGTCACCTAGTGCAG”, the binding signal is 4130 fluorescence intensity (a.u.).

Consider “TTAAATTAATAGCTCTGTTCCCTGTGGCTTTATATAAACACGGAGTCACCTAGTGCAG”, for which the binding signal was 5260 fluorescence intensity (a.u.).

Consider “ATTGTTCATACCCATAATTGGCAGATGTGCTGTTGCATCACGGAGTCACCTAGTGCAG”, for which the binding signal is 6710 fluorescence intensity (a.u.).

For the sequence “TGGGACTGATTAACAAGATAACTGAAACTATGTATTTATGCGGAGTCACCTAGTGCAG”, the binding signal is 11500 fluorescence intensity (a.u.).

Regarding “CAGCCAAGACATCATCAATCTAATGCATGCATCATGCATGCGGAGTCACCTAGTGCAG”, the binding signal was 3930 fluorescence intensity (a.u.).

In the case of “CACCCTACTAATTAATCCCCATCATGTAGATACATATCCACGGAGTCACCTAGTGCAG”, the binding signal was 10200 fluorescence intensity (a.u.).

For the sequence “AAAGATTGCACTCAAATAAATTAAGAAATCTCTTTTGTGACGGAGTCACCTAGTGCAG”, the binding signal was 11900 fluorescence intensity (a.u.).

As to “ACATGATTTCAATTTCACAGTGGCTAACTACTCAACATGCCGGAGTCACCTAGTGCAG”, the binding signal was 25700 fluorescence intensity (a.u.).

For the sequence “GATGAAATGATGATGATGATACAGCTGCCGCTGCGTGCTCCGGAGTCACCTAGTGCAG”, the binding signal is 4710 fluorescence intensity (a.u.).

Turning to “AATCCTAATTATAAGATTTAAGACCTTTCTCTTCACTTCACGGAGTCACCTAGTGCAG”, the binding signal is 9800 fluorescence intensity (a.u.).

In the case of “AGGAGATTAGTCTAATTAACAAGTGCAGATTCCCTAGCATCGGAGTCACCTAGTGCAG”, the binding signal is 27600 fluorescence intensity (a.u.).

Turning to “GAAATTATAACATTGTAATTTACTATGAGTTACAAAGTAACGGAGTCACCTAGTGCAG”, the binding signal is 13900 fluorescence intensity (a.u.).

Turning to “CTATAATAATTGATATTGTCTCGGATTATCTACTTAAATACGGAGTCACCTAGTGCAG”, the binding signal is 8550 fluorescence intensity (a.u.).

As to “ATGGAGAGAGGTGTAATTGGCATTCACTTCTAAAGGGTCACGGAGTCACCTAGTGCAG”, the binding signal is 4850 fluorescence intensity (a.u.).

For “CATGACCGAAATTTTAGGTCTAAATTAAAATAATCAAGCCCGGAGTCACCTAGTGCAG”, the binding signal was 8680 fluorescence intensity (a.u.).

Take “TGCAATAAATTATAGATGACTGAACATTTACACTCTACAGCGGAGTCACCTAGTGCAG”: the binding signal is 15300 fluorescence intensity (a.u.).

As to “GTATAAATTTTCCAGAAATTTGGTGTATTCCATGTATTTCCGGAGTCACCTAGTGCAG”, the binding signal was 3960 fluorescence intensity (a.u.).

“TGAATCTATTAAGCCTAATTAATCCATCATTAGTAAATGTCGGAGTCACCTAGTGCAG”: the binding signal was 8280 fluorescence intensity (a.u.).

On to “ACGTGACAAGTTAATTCCTGAAGAAATTTCTGAATGAACCCGGAGTCACCTAGTGCAG”, for which the binding signal was 10100 fluorescence intensity (a.u.).

For “CCTGACTGGGAAATCATGTGCATAACATTGGTTTGGGCCTCGGAGTCACCTAGTGCAG”, the binding signal is 48400 fluorescence intensity (a.u.).

For the sequence “CGACCATAAACCTCAATCACTGTTAGCCATCCATCTGCACCGGAGTCACCTAGTGCAG”, the binding signal was 5890 fluorescence intensity (a.u.).

Consider “TATAATAATAAATTGAACAGTTAGCTCTAGTCCAAATTCACGGAGTCACCTAGTGCAG”, for which the binding signal is 8050 fluorescence intensity (a.u.).

As to “TTGATATGGTGATTTGGACTCGAATGATAGGAGTGCTGGTCGGAGTCACCTAGTGCAG”, the binding signal was 11700 fluorescence intensity (a.u.).

On to “AGTGTCAATCTTAAGTGTAATGAACACCCTGCACATCTGGCGGAGTCACCTAGTGCAG”, for which the binding signal was 8620 fluorescence intensity (a.u.).

As for “TACAGTGTAATTACACTACGATTATACTATAATTACATCTCGGAGTCACCTAGTGCAG”, the binding signal was 14300 fluorescence intensity (a.u.).

For “TGGAATTGAAAGTTGAAACCATGCACCACTAGTCTCTCTCCGGAGTCACCTAGTGCAG”, the binding signal is 11500 fluorescence intensity (a.u.).

For the sequence “GTAACTGATATGACACGCCAAAACTTTACCACCCTATCCACGGAGTCACCTAGTGCAG”, the binding signal is 9160 fluorescence intensity (a.u.).

Regarding “GTTGATATATTCAGCAATTAACTGCAATACTGACATTATCCGGAGTCACCTAGTGCAG”, the binding signal is 4630 fluorescence intensity (a.u.).

Take “ATTAATCTATAGCCAATCTAATAGCTCATCCATACAATAGCGGAGTCACCTAGTGCAG”: the binding signal is 3390 fluorescence intensity (a.u.).

Take “ACCCAGGCTTTGATTGCGATGATAAACCGAGCTCGCAGCACGGAGTCACCTAGTGCAG”: the binding signal is 13800 fluorescence intensity (a.u.).

Regarding “ATTAATAATAGAATAGATGGCTCGAATACACCGGATTGTTCGGAGTCACCTAGTGCAG”, the binding signal was 6000 fluorescence intensity (a.u.).

Regarding “CTTTTGACTGACGGGTGGGACCAAATTTACGGGCCCACAGCGGAGTCACCTAGTGCAG”, the binding signal was 10400 fluorescence intensity (a.u.).

The values above are taken from publication PMC7819943, “Rice protein-binding microarrays: a tool to detect cis-acting elements near promoter regions in rice”.
